The test system of the data set is ATP. The experiment in a line: switch fluorescence ratio, 500 uM ATP over buffer (Cy3 cluster intensity, sum of 5 cycles each) (fold (ratio)); higher = stronger signal-on switching upon ATP binding; sequences stand for … in TCGTCGGCAGCGTCAGATGTGTATAAGAGACAGTTTTTTTTTTTTTTTTTTTTTTTTT…TC. The note with it: aptamer strand: ATP DNA aptamer (quencher-CACCTGGGGGAGTATTGCGGAGGAAGG + anchor), 100 nM annealed; ATP concentration: 500 uM; one replicate. A digest of the protocol: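 Switching-strand clusters labelled with Cy3 on a modified Illumina MiSeq flow-cell were annealed to 100 nM quencher-labelled ATP aptamer, imaged in selection buffer, and re-imaged after 15 min with 500 uM ATP at 22 °C. This was done over five cycles with NaOH stripping and re-annealing in between. The fluorescence ratio is summed target-cycle over summed buffer-cycle Cy3 intensity per cluster, averaged per switch-domain sequence, excluding clusters outside 100-1000 RFU.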

Values marked as one replicate rest on one cluster of the flow cell; about a third of the high ones do not repeat.
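Also: ATP exposure 15 min at 22 °C before imaging.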

Turning to CTGTGTAATT, the switch fluorescence ratio was found to be 1.18.

In the case of GGTGAACGGC, the switch fluorescence ratio was 1.05.

Take TGAGGAGCCT: the switch fluorescence ratio was 1.04.

As to GAGTCGAGGA, the switch fluorescence ratio was 1.03.

Regarding ATTCGATA, the switch fluorescence ratio was 0.984.

With AGTTGTTTAC, the switch fluorescence ratio amounted to 0.983.

Regarding GCGGGTAAA, the switch fluorescence ratio was 1.02.

With TATTAAACGC, the switch fluorescence ratio came out at 1.

Turning to ATGTAGCGCG, the switch fluorescence ratio stood at 0.977.

For the sequence GCAAGAAATG, the switch fluorescence ratio was 1.03.

As for AAATACCGGA, the switch fluorescence ratio turned out to be 1.21.

Take AGTAGCAACT: the switch fluorescence ratio was found to be 1.01.

Turning to GCGATTGTTG, the switch fluorescence ratio worked out at 0.992.

For the sequence ATGTGTGCTA, the switch fluorescence ratio stood at 1.03.

As to ATCGAGAGTG, the switch fluorescence ratio was found to be 0.98.

With TCTTATATTG, the switch fluorescence ratio was 0.97.

As for GCGACCCGTC, the switch fluorescence ratio was 1.01.

Regarding CAGTCGATTT, the switch fluorescence ratio was determined as 0.975.

Regarding ATTCGTTCCA, the switch fluorescence ratio stood at 1.03.

As to TGGGGCTCAT, the switch fluorescence ratio worked out at 0.97.

With ACGCCGGCAG, the switch fluorescence ratio was found to be 1.03.

As for ATTGTAGGTC, the switch fluorescence ratio was determined as 1.

As to CGCAGTTTAG, the switch fluorescence ratio is 1.14.

Regarding TTGATGTACC, the switch fluorescence ratio was found to be 1.06.

Consider CAATTTCTAT, for which the switch fluorescence ratio is 0.935.

For TGAGGGGGTC, the switch fluorescence ratio amounted to 0.994.

Take AGTTCACCCT: the switch fluorescence ratio worked out at 1.04.

Turning to GGTGGATGAA, the switch fluorescence ratio stood at 0.968.

For ATTTTATCGG, the switch fluorescence ratio was found to be 1.03.

Consider CTTGCTGTGG, for which the switch fluorescence ratio came out at 0.981.

As to TATTCCTAC, the switch fluorescence ratio was 1.43.

In the case of AGGTGGACCC, the switch fluorescence ratio was found to be 0.991.

As for TTGAGTACGC, the switch fluorescence ratio worked out at 1.23.

For GGTCTTTGAG, the switch fluorescence ratio was determined as 1.01.

Consider CATAGGGCT, for which the switch fluorescence ratio turned out to be 1.01.

Regarding ACCATTTACG, the switch fluorescence ratio turned out to be 1.16.

With TATGCCCGCA, the switch fluorescence ratio came to 1.05.

Take GTATGTCTAC: the switch fluorescence ratio stood at 1.01.

For GTTCTGGCAT, the switch fluorescence ratio came to 1.05.

For TGTGGTAATT, the switch fluorescence ratio was determined as 0.967.

For the sequence GCTGGATCCC, the switch fluorescence ratio is 1.04.

Turning to AATTCTAATT, the switch fluorescence ratio came to 0.986.

With CCTGTATATT, the switch fluorescence ratio is 0.956.

Turning to TGGATTGAGT, the switch fluorescence ratio came to 1.

Take GTTTATACGG: the switch fluorescence ratio stood at 0.99.

Consider GGCAACAGG, for which the switch fluorescence ratio was 1.08.

In the case of TTTTTCTGCA, the switch fluorescence ratio came to 1.08.

As to AGGGGACCCA, the switch fluorescence ratio is 0.943.

Take AAGAAGCGTA: the switch fluorescence ratio came out at 0.976.

Take ACGCGTCTTG: the switch fluorescence ratio was determined as 1.02.

With CCGCACGGGT, the switch fluorescence ratio came to 1.33.

On to TGCCGTGTTG, for which the switch fluorescence ratio amounted to 1.06.

For ATAACGTTTC, the switch fluorescence ratio was found to be 1.11.

Consider GATAGACAAA, for which the switch fluorescence ratio was 0.971.

On to GGCACACGT, for which the switch fluorescence ratio came out at 1.01.

As for TTTAGTACTT, the switch fluorescence ratio worked out at 1.06.

Turning to TTTAGTCAGC, the switch fluorescence ratio is 1.02.

In the case of GTCTTCCATA, the switch fluorescence ratio is 0.963.

Regarding TCGTAACGTC, the switch fluorescence ratio stood at 0.937.

With GCGTGGTCCA, the switch fluorescence ratio worked out at 1.01.

TATTCCCTCA: the switch fluorescence ratio was 0.993.

As for CACGCAAGGT, the switch fluorescence ratio was found to be 1.8.

As for AATCTTCACT, the switch fluorescence ratio is 1.03.

Take TTCCATTG: the switch fluorescence ratio was found to be 1.01.

With TGTTCAGTAG, the switch fluorescence ratio worked out at 0.985.

For TCAGTCTGCA, the switch fluorescence ratio is 1.15.

Regarding TCGGGCCTGG, the switch fluorescence ratio came out at 1.01.

The values are drawn from the supplement of paper PMC10126150.
